Assay results from PubChem BioAssay AID624417 (National Center for Advancing Translational Sciences (NCATS), 2012).
Where “and” joins values, the source holds several entries; their conditions need not be identical. Equal entries are not always repeated. Among all 410,000 compounds or so, about 6,400 (1.6%) were called active. The inconclusive results got no clear call from the source; some entries with a clear call stand among them for comparison. Calls come from the whole dose curve; as a rule, active = well fitted inhibition curve with a large enough effect; inconclusive = small, poorly fitted or top-dose-only effect; inactive = no such curve, though single readings can be large or run the other way. Potencies beside an inconclusive call are fits to weak or partial responses and may not hold up.

molecular target: Glucagon-like peptide 1 receptor (Homo sapiens) (UniProt P43220); assay: qHTS of GLP-1 Receptor Inverse Agonists (Inhibition Mode); settings: HEK293 GLP-1R CRE-luciferase, luminescence, 24 h, GLP-1R form is constitutively active; activity change, negative = inhibition: at 38.3 µM (top of the series) unless noted; note: nearly all actives have a fitted effect of over 55% in size
Chain of UniProt P43220 (P43220 whole entry, looked up): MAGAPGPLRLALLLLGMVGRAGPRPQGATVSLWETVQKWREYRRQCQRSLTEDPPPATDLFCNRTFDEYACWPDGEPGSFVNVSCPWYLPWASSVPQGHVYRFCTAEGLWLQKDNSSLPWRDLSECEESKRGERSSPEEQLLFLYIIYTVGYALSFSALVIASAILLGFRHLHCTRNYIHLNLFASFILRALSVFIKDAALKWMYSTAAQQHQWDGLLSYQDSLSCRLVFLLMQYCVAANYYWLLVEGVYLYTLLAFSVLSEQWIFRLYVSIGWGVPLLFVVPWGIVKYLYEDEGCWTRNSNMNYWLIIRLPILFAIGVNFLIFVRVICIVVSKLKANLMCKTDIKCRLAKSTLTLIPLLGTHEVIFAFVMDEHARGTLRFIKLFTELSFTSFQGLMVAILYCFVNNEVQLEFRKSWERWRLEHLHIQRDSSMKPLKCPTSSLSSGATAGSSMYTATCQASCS
How it was run: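 qHTS in 1536-well format: reporter HEK293 cells expressing constitutive GLP-1R activity in DMEM + 10% Nu serum, 24 hr with compounds at 37 deg C, luminescence read after 12 min with detection reagent.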
% is set by controls: 0 for no effect and ±100 for the full control effect; potency is the fitted concentration of half-maximal effect; tags give direction and shape of the fitted curve.

Compound | Potency | activity change, negative = inhibition
CC(C)Cn1c(/C=C/c2ccccc2)nc2ccccc21 | inconclusive: 11.2 µM [inhibitor, partial curve] | –
Clc1ccc(Cn2nnc(-c3ccc(CN4CCOCC4)cc3)n2)cc1 | inconclusive: 8.91 µM [inhibitor, partial curve, poor fit] | –
Cc1ccc(CN(C)C(=O)CN2C(=O)NC(c3ccccc3)(c3ccccc3)C2=O)c(C)c1 | active: 3.55 µM | –
C[C@H](CO)N1C[C@H](C)[C@@H](CN(C)Cc2ccc(Oc3ccccc3)cc2)Oc2ccc(NC(=O)Cn3cnnn3)cc2C1=O | – | inactive: 11.1%
COc1ccc2oc(C(=O)c3ccccc3)c(NC(=O)CN3CCN(C)CC3)c2c1 | inconclusive: 12.6 µM [inhibitor, partial curve, poor fit] | –
OC1CCN(c2cc(-c3ccccc3)nc3cc(-c4ccc(F)cc4)nn23)CC1 | inconclusive: 12.6 µM [inhibitor, single point] | –
N#CCCn1c2ccccc2c2nc3ccccc3nc21 | – | inactive: 57.7%
CCN(CC)CCN1c2ccccc2Sc2ccccc21 | inconclusive: 10 µM [inhibitor, single point] | –
COc1c(/C=N/Nc2nc(N3CCCCC3)nc(N3CCCCC3)n2)cccc1[N+](=O)[O-] | – | inactive: -2.06%
Cc1ccc2oc(=O)c3cnn(CC(=O)NCCCOC(C)C)c3c2c1 | – | inactive: 1.21%
CCOc1ccccc1Cn1c(=O)oc2ccc(C)cc21 | inconclusive: 10 µM [inhibitor, partial curve, poor fit] | –
CC(CC(=O)Nc1ccc(Cl)c(S(=O)(=O)N2CCOCC2)c1)c1ccccc1 (stereo unspecified) | inconclusive: 14.1 µM [inhibitor, partial curve, poor fit] | –
COc1ccc(CN2CCC(CO)(CCOc3ccccc3)CC2)cc1C | inconclusive: 12.6 µM [inhibitor, single point] | –
COc1ccc(-c2noc(CCC(=O)N3CCN(c4cccc(Cl)c4)CC3)n2)cc1 | – | inactive: 1.95%
Cc1c(Cl)ccc2sc(N3CCN(C(=O)CS(=O)(=O)c4ccccc4)CC3)nc12 | inconclusive: 22.4 µM [inhibitor, single point] | –
Cc1ccc(-c2cc(NC(=O)c3ccccc3[N+](=O)[O-])n[nH]2)cc1 | inconclusive: 8.91 µM [inhibitor, partial curve, poor fit] | –
Cc1nnc(SCc2c(Cl)cccc2Cl)s1 | inconclusive: 31.6 µM [inhibitor, partial curve, poor fit] | –
COc1ccc(CCN2C(=O)CC(Cc3ccc(Br)cc3)C2=O)cc1OC (stereo unspecified) | inconclusive: 12.6 µM [inhibitor, partial curve] | –
CCOC(=O)C1=CC[C@@H](c2cc(OC)c(OC)c(OC)c2)N(S(=O)(=O)c2ccc(C)cc2)[C@H]1C(=O)OCC | inconclusive: 17.8 µM [inhibitor, partial curve, poor fit] | –
O=C(COC(=O)/C=C/c1cccc(Cl)c1)NC1CC1 | – | inactive: 8.46%
C/C(=N\Nc1ccc(C)c(Cl)c1)c1ccncc1 | inconclusive: 22.4 µM [inhibitor, single point] | –

Compound | Potency | activity change, negative = inhibition
CCOc1ccc(NC(=O)CC2C(=O)NCCN2C(=O)Nc2ccccc2)cc1 (stereo unspecified) | inconclusive: 1.78 µM [inhibitor, partial curve, poor fit] | –
N#C/C(=C/c1ccc(-c2ccc(Br)cc2)o1)C(=O)NC1CCCCC1 | inconclusive: 7.08 µM [inhibitor, partial curve, poor fit] | –
CN(CC(=O)Nc1ccc(F)cc1)C(=O)COc1ccc([N+](=O)[O-])cc1Cl | inconclusive: 10 µM [inhibitor, partial curve, poor fit] | –
O=C(Nc1ccc(Cl)cc1)N1CCC(c2nc(-c3ccccc3Cl)no2)CC1 | inconclusive: 8.91 µM [inhibitor, partial curve, poor fit] | –
CSc1cccc(NC(=O)CSc2ccccc2)c1 | inconclusive: 11.2 µM [inhibitor, single point] | –
CCCCN1C(=O)/C(=c2\sc3nc(=O)c(-c4ccccc4)nn3c2=O)c2ccccc21 | – | inactive: 10.7%
O=C(NC(=S)N1CCN(c2ccc([N+](=O)[O-])cc2)CC1)c1ccc(F)cc1 | inconclusive: 2.24 µM [inhibitor, full curve] | –
NS(=O)(=O)c1ccc(CCNC(=O)c2cc(-c3cccs3)nc3ccccc23)cc1 | inconclusive: 28.2 µM [inhibitor, single point] | –
CCC(C)c1ccc(O)c(/C=N/O)c1 (stereo unspecified) | inconclusive: 7.94 µM [inhibitor, partial curve, poor fit] | –
Cc1cccc(NC(=O)c2nc(S(=O)(=O)Cc3ccccc3)ncc2Cl)c1 | inconclusive: 28.2 µM [inhibitor, single point] | –
COc1cc(Cl)c(CN2CCC(CO)(CCOc3ccccc3)CC2)cc1OC | inconclusive: 17.8 µM [inhibitor, partial curve, poor fit] | –
Cc1ccc(N(CC(=O)Nc2ccc(F)cc2)S(=O)(=O)N2CCCC2)cc1 | inconclusive: 28.2 µM [inhibitor, single point] | –
COc1ccc(N2CCN(C(=O)Cc3ccc(Cl)cc3)CC2)cc1 | inconclusive: 10 µM [inhibitor, partial curve, poor fit] | –
COc1ccc(OCc2cc(C(=O)N3CCCC(CO)C3)no2)c2ccccc12 (stereo unspecified) | inconclusive: 31.6 µM [inhibitor, single point] | –
CCCOc1ncnc2c1[nH]c1ccc(C)cc12 | inconclusive: 28.2 µM [inhibitor, single point] | –
CN(C)CCNC(=O)c1ccc2c(c1)N(Cc1c(F)cccc1Cl)C(=O)c1ccccc1S2 | inconclusive: 31.6 µM [inhibitor, partial curve, poor fit] | –
COc1ccc(Cl)cc1NC(=O)c1cccc(N2C(=O)C3CC=CCC3C2=O)c1 (stereo unspecified) | inconclusive: 11.2 µM [inhibitor, single point] | –
CC1(C)C([N+](=O)[O-])C(c2ccc(O)cc2)NC(c2ccc(O)cc2)C1[N+](=O)[O-] (stereo unspecified) | inconclusive: 10 µM [inhibitor, single point] | –
CC1(C)CN=c2s/c(=C\c3ccc(Cl)cc3)c(=O)n2C1 | inconclusive: 12.6 µM [inhibitor, partial curve, poor fit] | –
COc1ccc(CN(C)C(=O)C23CC4CC(CC(C4)C2)C3)c(OC)c1 | inconclusive: 1.58 µM [inhibitor, partial curve, poor fit] | –
O=c1cc(-c2ccc(O)cc2)oc2c(C3O[C@H](CO)[C@@H](O)[C@H](O)[C@H]3O)c(O)cc(O)c12 (stereo partly specified) | – | inactive: 26.7%

Compound | Potency | activity change, negative = inhibition
Cc1ccn2cc(-c3ccc(C)c(NS(=O)(=O)c4ccc(Cl)cc4)c3)nc2c1 | inconclusive: 28.2 µM [inhibitor, single point] | –
O=C(c1cccc(COc2cccc3ccccc23)c1)N1CCCC1 | inconclusive: 22.4 µM [inhibitor, single point] | –
c1ccc(-c2cc3c(N4CCN(c5ccccc5)CC4)ncnc3s2)cc1 | inconclusive: 28.2 µM [inhibitor, single point] | –
Cc1cc(C)c(NC(=O)Cn2c(=O)n(Cc3ccc(C(=O)NCc4ccco4)cc3)c(=O)c3sccc32)c(C)c1 | – | inactive: -10.2%
Cc1ccc(S(=O)(=O)c2nc(-c3cccc(Cl)c3)oc2NCc2ccccc2)cc1 | inconclusive: 3.98 µM [inhibitor, partial curve] | –
COc1ccc(C(=O)N2CCN(c3nc4cc(C)cc(C)c4cc3C#N)CC2)cc1 | inconclusive: 28.2 µM [inhibitor, single point] | –
CCN1CCN(c2nnc(-c3ccc(F)cc3)c3ccccc23)CC1 | inconclusive: 11.2 µM [inhibitor, partial curve, poor fit] | –
COc1ccc(-c2ccc3c(c2)C2CC3CCN2S(=O)(=O)c2ccccc2C)cc1 (stereo unspecified) | inconclusive: 28.2 µM [inhibitor, single point] | –
CCN(CC)CC(O)CN1c2ccccc2Sc2ccccc21 (stereo unspecified) | inconclusive: 3.16 µM [inhibitor, partial curve, poor fit] | –
COc1cccc(C2SCC(=O)N2c2cccc(C)c2)c1OC (stereo unspecified) | inconclusive: 20 µM [inhibitor, single point] | –
COc1ccc(C)cc1Nc1nc(N)c2cc(OC)c(OC)cc2n1 | inconclusive: 12.6 µM [inhibitor, single point] and inconclusive: 28.2 µM [inhibitor, single point] | –
CC(=O)c1cccc(NC(=O)c2nc(-c3ccccc3)n(-c3ccccc3C)n2)c1 | – | inactive: 9.93%
COCc1cc(C)nc(SCc2ccccc2)c1C#N | inconclusive: 10 µM [inhibitor, partial curve, poor fit] | –
CCc1cccc(NC(=O)C2CCN(S(=O)(=O)c3cccc(-c4noc(C)n4)c3)CC2)c1 | inconclusive: 2.24 µM [inhibitor, full curve, poor fit] | –
CC(=O)Nc1ccc(NC(=O)CSc2nnc(-c3ccccc3)n2Cc2ccc3c(c2)OCO3)cc1 | – | inactive: 0%
Cc1ccc(C)c(OCc2ccc(C(=O)N3N=C(C(F)F)CC3(O)C(F)F)o2)c1 (stereo unspecified) | inconclusive: 11.2 µM [inhibitor, single point] | –
O=C(CSc1nnc(-c2ccco2)n1Cc1ccccc1)NC(=O)NCc1ccccc1 | inconclusive: 15.8 µM [inhibitor, single point] | –
CCN1CCN(c2cc(C)c3cc(NC(=O)c4ccc(OC)c(OC)c4)ccc3n2)CC1 | inactive | –
CCc1cccc(CC)c1NC(=O)COC(=O)CC1c2ccccc2CCN1S(=O)(=O)c1ccccc1 (stereo unspecified) | inconclusive: 25.1 µM [inhibitor, partial curve, poor fit] | –
